# Where “and” joins values, the source holds several entries; their conditions need not be identical. Equal entries are not always repeated. This list was built around the results that the source calls inconclusive (neither active nor inactive); the mix of calls is not that of the screen. For some of these results: Where the call is inconclusive, the potency comes from a doubtful curve fit. Some structures have more than one record in an assay (separate samples or runs), and their calls can disagree. Calls of active or inactive are those of the source. Unless noted, calls come from the whole dose curve.
# What was measured:
# [1] = qHTS assay to identify small molecule antagonists of the sonic hedgehog signaling (Shh) pathway (AID 1259369); note: nearly all actives have a fitted effect of over 45% in size; note: potency is the fitted concentration of half-maximal effect
# How it was run: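 Read-out is luminescence from a firefly luciferase gene controlled by the Gli1 response element, in 3T3Gli1-Luc cells pre-incubated 4hr then exposed to compounds and conditioned medium for 24hr.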
# [2] = biological target: Estrogen receptor beta (Homo sapiens) (UniProt Q92731); assay: qHTS assay to identify small molecule antagonists of the estrogen receptor beta (ER-beta) signaling pathway (AID 1259378; active = well fitted inhibition curve with a large enough effect in the signal ratio in the repeat runs, not every such curve was filed as active; inconclusive = weak or mixed curves, or effect the other way; inactive = no such curve, though single readings can be large or run the other way; the % refers to the signal ratio; note: potency is the fitted concentration of half-maximal effect; for activity, negative = inhibition: % is set by controls: 0 for no effect and ±100 for the full control effect); conditions: ER-beta-UAS-bla HEK293T, beta-lactamase FRET ratio, 16 h; activity, negative = inhibition: at 92.4 µM (top of the series) unless noted
# How it was run: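 Antagonist mode: compounds added to beta-lactamase reporter HEK293T ER-beta-UAS cells stimulated with E2 (1nM final), 16 hr at 37C. LiveBLAzer B/G FRET substrate, 2 hours room temperature, fluorescence read-out.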
# [3] = qHTS assay to identify small molecule agonists of the androgen receptor (AR) signaling pathway in the presence of an antagonist - cell viability counter screen (AID 1259379; active = well fitted curve in the direction sought with a large enough effect in the repeat runs; inconclusive = weak or mixed curves; inactive = no such curve, though single readings can be large; an effect the other way counts as inactive or inconclusive; note: nearly all actives have a fitted effect of over 25% in size; note: potency is the fitted concentration of half-maximal effect)
# How it was run: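 Each compound was tested at 15 concentrations on MDA-kb2 cells in the presence of 3.0uM nilutamide. Viability was measured by CellTiter-Fluor fluorescence after a 16 hr incubation at 37C in a CO2-free atmosphere.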
# [4] = qHTS assay to identify small molecule agonists of the estrogen receptor beta (ER-beta) signaling pathway - cell viability counter screen (AID 1259380; active = well fitted curve in the direction sought with a large enough effect in the repeat runs; inconclusive = weak or mixed curves; inactive = no such curve, though single readings can be large; an effect the other way counts as inactive or inconclusive; note: nearly all actives have a fitted effect of over 30% in size; note: potency is the fitted concentration of half-maximal effect)
# How it was run: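 Compounds dissolved in DMSO were pin-transferred onto ER-beta-UAS-bla HEK293T cells that had settled 6 hr, and exposure ran 16 hr at 37C. Following the reporter read, CellTiter-Glo luminescence after 30 min at room temperature indicated cytotoxicity.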
# [5] = biological target: Progesterone receptor (Homo sapiens) (UniProt P06401); assay: qHTS assay to identify small molecule antagonists of the progesterone receptor (PR) signaling pathway (AID 1346795; active = well fitted inhibition curve with a large enough effect in the signal ratio in the repeat runs, not every such curve was filed as active; inconclusive = weak or mixed curves; the % refers to the signal ratio; note: potency is the fitted concentration of half-maximal effect; for activity change, negative = inhibition: % is set by controls: 0 for no effect and ±100 for the full control effect); conditions: PR-UAS-bla HEK293T, beta-lactamase FRET ratio, 16 h
# How it was run: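 Inhibition of R5020-induced (1 nM final) beta-lactamase reporter signal in PR-UAS-bla HEK293T cells was scored by FRET fluorescence after overnight (16 hr) compound treatment.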
# [6] = qHTS assay to identify small molecule agonists of the progesterone receptor (PR) signaling pathway - cell viability counter screen (AID 1346799); note: potency is the fitted concentration of half-maximal effect; nearly all actives have a fitted effect of over 45% in size
# How it was run: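 Cytotoxicity in PR-bla HEK293T cells: 16 h compound, 37C; CellTiter-Glo added post-FRET read; luminescence after 30 min RT.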
# [7] = biological target: Thyrotropin receptor (Homo sapiens) (UniProt P16473); assay: qHTS assay to identify small molecule antagonists of the thyroid stimulating hormone receptor (TSHR) signaling pathway (AID 1259385); conditions: TSHR-HEK293 cAMP HTRF, TSH-stimulated antagonist mode; activity change, negative = inhibition: at 92.4 µM (top of the series) unless noted; note: nearly all actives have a fitted effect of over 20% in size; note: potency is the fitted concentration of half-maximal effect
# How it was run: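 Antagonist mode: compound-treated TSHR-expressing HEK293 cells were stimulated with 1.5 ng/mL TSH (final) in presence of Ro20-1724 for 30 min at RT. HTRF cAMP detection after 1 h; each compound tested at 15 concentrations, triplicate.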
# [8] = biological target: Progesterone receptor (Homo sapiens) (UniProt P06401); assay: qHTS assay to identify small molecule agonists of the progesterone receptor (PR) signaling pathway (AID 1346784); conditions: PR-UAS-bla HEK293T, beta-lactamase FRET ratio, 16 h; activation: at 92.4 µM (top of the series) unless noted; note: nearly all actives have a fitted effect of over 30% in size; note: potency is the fitted concentration of half-maximal effect; for activation: % is set by controls: 0 for no effect and ±100 for the full control effect
# How it was run: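 Using charcoal-stripped serum (2%) to limit endogenous steroids, PR-UAS-bla HEK 293T cells received compounds for 16 hr at 37C after 6 hr plating; beta-lactamase FRET fluorescence was recorded following 2 hr substrate loading at room temperature.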
# [9] = qHTS assay to identify small molecule antagonists of the progesterone receptor (PR) signaling pathway - cell viability counter screen (AID 1346798; active = well fitted curve in the direction sought with a large enough effect in the repeat runs; inconclusive = weak or mixed curves; inactive = no such curve, though single readings can be large; an effect the other way counts as inactive or inconclusive; note: nearly all actives have a fitted effect of over 50% in size; note: potency is the fitted concentration of half-maximal effect)
# How it was run: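 ATP content as viability readout: CellTiter-Glo luminescence, 30 min room temperature, in PR-UAS-bla HEK293T cells after 16 hr compound/R5020 treatment at 37C and 5% CO2.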
# [10] = biological target: Androgen receptor (Homo sapiens) (UniProt P10275); assay: qHTS assay to identify small molecule agonists of the androgen receptor (AR) signaling pathway in the presence of an antagonist (AID 1259381); note: potency is the fitted concentration of half-maximal effect; nearly all actives have a fitted effect of over 15% in size
# How it was run: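 Plated MDA-kb2 cells (3,000/well) were pre-incubated 5hr, given nilutamide (3.0uM final) or buffer, then dosed with compounds in DMSO at 15 concentrations. Luciferase activity was quantified by luminescence after 16hr at 37C.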
# [11] = qHTS assay to identify small molecule antagonists of the TGF-beta/Smad signaling pathway - cell viability counter screen (AID 1346824; active = well fitted curve in the direction sought with a large enough effect in the repeat runs; inconclusive = weak or mixed curves; inactive = no such curve, though single readings can be large; an effect the other way counts as inactive or inconclusive; note: potency is the fitted concentration of half-maximal effect; nearly all actives have a fitted effect of over 50% in size)
# How it was run: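 Cytotoxicity counter-screen run in the same wells as the beta-lactamase Smad reporter read: CellTiter-Glo luminescence after 30 min at room temperature. HEK 293T SBE-bla cells had 5 hr compound exposure at 37 C with TGF-beta1 (0.25 ng/mL stock).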
# [12] = qHTS assay to identify small molecule agonists of the TGF-beta/Smad signaling pathway - cell viability counter screen (AID 1346829; active = well fitted curve in the direction sought with a large enough effect in the repeat runs; inconclusive = weak or mixed curves; inactive = no such curve, though single readings can be large; an effect the other way counts as inactive or inconclusive; note: top concentration of the series differs between compounds; % is set by controls: 0 for no effect and ±100 for the full control effect; nearly all actives have a fitted effect of over 45% in size)
# How it was run: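 Tox21 qHTS format: SBE-bla HEK 293T cells treated with DMSO-dissolved compounds for 5 hr; CellTiter-Glo luminescence after 30 min at room temperature.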
# [13] = qHTS assay to identify small molecule antagonists of the estrogen receptor beta (ER-beta) signaling pathway - cell viability counter screen (AID 1259382; active = well fitted curve in the direction sought with a large enough effect in the repeat runs; inconclusive = weak or mixed curves; inactive = no such curve, though single readings can be large; an effect the other way counts as inactive or inconclusive;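 note: HEK293T cells carrying ER-beta-UAS-bla reporter stimulated with estradiol; % is set by controls: 0 for no effect and ±100 for the full control effect; nearly all actives have a fitted effect of over 55% in size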)
# How it was run: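 CellTiter-Glo ATP luminescence measured after the LiveBLAzer read in the same wells; ER-beta-UAS-bla HEK293T cells, 16 hr compound treatment with 1nM 17-beta-estradiol agonist at 37C, 5% CO2.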
# [14] = qHTS assay to identify small molecule agonists or antagonists of the thyroid stimulating hormone receptor (TSHR) signaling pathway - wild type cell line counter screen (AID 1259384); conditions: HEK293 wild type, cAMP HTRF counter-screen; cAMP activity change: at 92.4 µM (top of the series), stronger effect = higher value unless noted; note: % is set by controls: 0 for no effect and ±100 for the full control effect
# How it was run: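 Counter screen in untransfected Hek293: compounds (15-point titration, triplicate) plus phosphodiesterase inhibitor Ro20-1724 added after 18 h plating; 30 min RT. Intracellular cAMP via competitive d2/cryptate immunoassay, 1 h incubation.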
# [15] = qHTS assay to identify small molecule agonists of the estrogen receptor alpha (ER-alpha) signaling pathway in the presence of an antagonist - cell viability counter screen (AID 1259386; active = well fitted curve in the direction sought with a large enough effect in the repeat runs; inconclusive = weak or mixed curves; inactive = no such curve, though single readings can be large; an effect the other way counts as inactive or inconclusive;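 note: cells exposed to compounds for 22 h at 37 °C before the viability read; nearly all actives have a fitted effect of over 30% in size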; note: potency is the fitted concentration of half-maximal effect)
# How it was run: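 Using estrogen-depleted VM7Luc4E2 cells, the 15-concentration compound series was applied together with 10.0nM ICI-182,780 and incubated 22hr at 37C/5% CO2. Cell viability was then scored by CellTiter-Fluor.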
# [16] = activity change, negative = inhibition: at 92.4 µM (top of the series) unless noted
# Tags give direction and shape of the fitted curve or compound fluorescence and quenching.
# Sequence of UniProt Q92731 (Q92731 whole entry, looked up): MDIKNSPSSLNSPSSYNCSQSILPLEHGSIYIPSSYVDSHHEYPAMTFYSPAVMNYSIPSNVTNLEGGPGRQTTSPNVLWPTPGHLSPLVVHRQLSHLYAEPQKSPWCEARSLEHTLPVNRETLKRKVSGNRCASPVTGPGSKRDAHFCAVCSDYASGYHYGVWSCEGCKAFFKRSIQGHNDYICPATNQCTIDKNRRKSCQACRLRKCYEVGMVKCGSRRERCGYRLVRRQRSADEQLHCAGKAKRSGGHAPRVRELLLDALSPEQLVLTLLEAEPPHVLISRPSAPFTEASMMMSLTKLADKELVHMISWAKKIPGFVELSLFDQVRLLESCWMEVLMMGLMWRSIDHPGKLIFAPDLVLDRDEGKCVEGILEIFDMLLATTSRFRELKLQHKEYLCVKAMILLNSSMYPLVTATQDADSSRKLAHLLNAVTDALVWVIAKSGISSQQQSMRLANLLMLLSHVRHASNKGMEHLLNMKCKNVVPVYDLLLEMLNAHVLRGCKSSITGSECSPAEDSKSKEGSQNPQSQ
# Sequence of UniProt P16473 (P16473 whole entry, looked up): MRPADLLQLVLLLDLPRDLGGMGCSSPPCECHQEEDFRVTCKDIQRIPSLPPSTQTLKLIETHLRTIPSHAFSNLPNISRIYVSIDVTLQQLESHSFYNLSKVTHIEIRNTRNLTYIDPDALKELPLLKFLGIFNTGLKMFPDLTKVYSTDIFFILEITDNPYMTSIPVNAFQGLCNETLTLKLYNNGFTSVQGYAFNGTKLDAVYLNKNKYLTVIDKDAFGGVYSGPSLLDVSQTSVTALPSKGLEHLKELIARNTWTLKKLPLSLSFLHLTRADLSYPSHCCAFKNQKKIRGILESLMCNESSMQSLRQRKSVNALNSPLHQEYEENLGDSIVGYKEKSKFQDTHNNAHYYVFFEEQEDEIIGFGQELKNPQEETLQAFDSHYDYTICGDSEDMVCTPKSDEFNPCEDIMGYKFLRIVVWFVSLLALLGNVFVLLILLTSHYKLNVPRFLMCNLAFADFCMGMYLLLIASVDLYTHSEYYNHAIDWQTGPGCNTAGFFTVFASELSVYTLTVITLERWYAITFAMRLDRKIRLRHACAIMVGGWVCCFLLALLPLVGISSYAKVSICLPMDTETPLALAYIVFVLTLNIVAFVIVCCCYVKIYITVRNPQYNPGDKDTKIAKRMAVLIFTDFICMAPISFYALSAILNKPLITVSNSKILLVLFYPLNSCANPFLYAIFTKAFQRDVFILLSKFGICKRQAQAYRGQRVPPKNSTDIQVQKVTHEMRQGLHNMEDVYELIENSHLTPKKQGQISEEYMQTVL
# Sequence of UniProt P06401 (P06401 whole entry, looked up): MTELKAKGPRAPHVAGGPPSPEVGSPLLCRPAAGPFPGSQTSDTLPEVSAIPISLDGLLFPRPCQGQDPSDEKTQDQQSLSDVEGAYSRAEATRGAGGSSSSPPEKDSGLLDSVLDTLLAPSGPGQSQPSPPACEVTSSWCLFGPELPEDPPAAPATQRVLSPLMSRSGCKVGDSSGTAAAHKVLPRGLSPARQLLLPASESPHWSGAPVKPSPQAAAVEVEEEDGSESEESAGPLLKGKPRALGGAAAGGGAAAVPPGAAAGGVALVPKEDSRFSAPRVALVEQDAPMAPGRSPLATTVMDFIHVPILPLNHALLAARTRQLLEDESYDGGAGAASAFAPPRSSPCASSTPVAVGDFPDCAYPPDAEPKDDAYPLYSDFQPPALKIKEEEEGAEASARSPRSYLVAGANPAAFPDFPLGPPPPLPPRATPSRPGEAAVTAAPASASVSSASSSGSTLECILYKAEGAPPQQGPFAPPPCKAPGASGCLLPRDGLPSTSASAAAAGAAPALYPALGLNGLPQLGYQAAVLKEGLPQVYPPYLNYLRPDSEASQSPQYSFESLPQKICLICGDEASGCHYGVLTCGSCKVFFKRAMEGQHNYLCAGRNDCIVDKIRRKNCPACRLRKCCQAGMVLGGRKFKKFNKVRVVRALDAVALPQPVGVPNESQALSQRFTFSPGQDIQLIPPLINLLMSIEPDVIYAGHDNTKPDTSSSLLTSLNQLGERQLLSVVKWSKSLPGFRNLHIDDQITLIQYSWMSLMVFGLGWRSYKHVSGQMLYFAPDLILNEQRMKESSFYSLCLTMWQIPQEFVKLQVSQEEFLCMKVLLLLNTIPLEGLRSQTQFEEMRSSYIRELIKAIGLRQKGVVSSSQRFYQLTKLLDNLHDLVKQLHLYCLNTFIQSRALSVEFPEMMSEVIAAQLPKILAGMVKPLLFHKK
# Sequence of UniProt P10275 (P10275 whole entry, looked up): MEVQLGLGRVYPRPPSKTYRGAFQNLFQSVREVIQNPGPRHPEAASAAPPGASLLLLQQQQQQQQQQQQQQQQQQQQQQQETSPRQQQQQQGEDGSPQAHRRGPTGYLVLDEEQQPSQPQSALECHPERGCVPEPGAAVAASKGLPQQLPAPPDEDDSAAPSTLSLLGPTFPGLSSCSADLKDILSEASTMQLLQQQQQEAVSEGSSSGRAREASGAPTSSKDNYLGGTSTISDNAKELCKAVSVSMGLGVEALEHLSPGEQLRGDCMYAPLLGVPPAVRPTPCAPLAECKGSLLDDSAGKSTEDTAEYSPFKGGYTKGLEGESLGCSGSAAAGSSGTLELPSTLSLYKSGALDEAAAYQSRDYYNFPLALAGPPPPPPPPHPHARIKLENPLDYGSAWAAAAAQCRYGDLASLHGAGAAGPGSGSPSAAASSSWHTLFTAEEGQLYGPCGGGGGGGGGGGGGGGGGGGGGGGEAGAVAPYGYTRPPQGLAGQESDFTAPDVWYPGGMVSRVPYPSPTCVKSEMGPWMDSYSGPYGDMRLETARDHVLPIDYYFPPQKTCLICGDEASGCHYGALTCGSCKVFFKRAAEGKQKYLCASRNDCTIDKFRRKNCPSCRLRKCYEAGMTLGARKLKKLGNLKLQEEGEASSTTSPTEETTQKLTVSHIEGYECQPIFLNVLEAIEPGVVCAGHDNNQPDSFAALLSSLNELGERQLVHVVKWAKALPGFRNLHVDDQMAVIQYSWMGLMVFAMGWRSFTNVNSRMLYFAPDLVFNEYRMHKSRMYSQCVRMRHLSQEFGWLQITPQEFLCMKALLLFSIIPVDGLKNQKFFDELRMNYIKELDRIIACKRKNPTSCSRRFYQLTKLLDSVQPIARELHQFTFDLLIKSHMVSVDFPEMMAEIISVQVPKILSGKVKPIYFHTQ
compound,measurement,setting,value
Cn1cc[nH]c1=S,Potency,[1],"inconclusive: 0.243 µM [inhibitor, single point]"
same,Potency,[2],active: 43.2 µM and inactive
same,Potency,[3],inactive
same,Potency,[4],"inconclusive: 38.5 µM [cytotoxic, partial curve]"
same,Potency,[5]; [16],"inconclusive: 27.3 µM [rising, partial curve, poor fit]"
same,Potency,[6],active: 43.2 µM
O=C(Nc1ccc([N+](=O)[O-])cc1)Nc1ccc([N+](=O)[O-])cc1,Potency,[1],"inconclusive: 6.68 µM [inhibitor, single point]"
same,"activity, negative = inhibition",[2],inconclusive: 10.3% [at 42.5 µM]
same,Potency,[3],"inconclusive: 16.8 µM [cytotoxic, partial curve]"
same,Potency,[7],"inconclusive: 33.5 µM [falling, single point]"
same,Potency,[8],inactive
same,Potency,[5]; [16],inactive
same,Potency,[9],"inconclusive: 0.668 µM [cytotoxic, full curve]"
same,Potency,[6],"inconclusive: 0.75 µM [cytotoxic, full curve]"
CNCCCC1c2ccccc2C=Cc2ccccc21,Potency,[1],active: 9.44 µM
same,Potency,[2],active: 11.9 µM
same,Potency,[3],"inconclusive: 33.5 µM [cytotoxic, single point]"
same,Potency,[4],active: 23.7 µM
same,Potency,[7],active: 26.6 µM
same,Potency,[5]; [16],"inconclusive: 26.6 µM [falling, partial curve]"
same,Potency,[9],active: 21.1 µM
same,Potency,[6],active: 10.6 µM
COC(=O)C1=C(C)NC(C)=C(C(=O)OC(C)C)C1c1cccc2nonc12 (stereo not given),Potency,[1],"inconclusive: 1.06 µM [inhibitor, full curve, poor fit]"
same,Potency,[2],active: 26.6 µM
same,Potency,[4],inactive
same,"activity change, negative = inhibition",[7],inconclusive: -16.9% [at 42.5 µM]
same,Potency,[5]; [16],"inconclusive: 2.37 µM [rising, full curve]"
same,Potency,[9],"inconclusive: 29.8 µM [rising, single point]"
same,Potency,[6],"inconclusive: 29.8 µM [rising, partial curve]"
COc1c2occc2cc2ccc(=O)oc12,Potency,[1],"inconclusive: 27.5 µM [inhibitor, partial curve]"
same,"activity, negative = inhibition",[2],inconclusive: 2.98% [at 42.5 µM]
same,Potency,[4],inactive
same,"activity change, negative = inhibition",[5]; [16],inconclusive: -27.1% and inconclusive: -21.8%
C[Si](C)O[Si](C)C,Potency,[1],inactive
same,Potency,[2],inactive
same,Potency,[10],"inconclusive: 38.6 µM [rising, partial curve]"
CCc1c2c(nc3ccc(OC(=O)N4CCC(N5CCCCC5)CC4)cc13)-c1cc3c(c(=O)n1C2)COC(=O)[C@]3(O)CC,Potency,[1],"inconclusive: 0.944 µM [inhibitor, full curve]"
same,"activity, negative = inhibition",[2],inconclusive: -8.59% [at 42.5 µM]
same,"activity change, negative = inhibition",[7],inconclusive: -16.5% [at 42.5 µM]
same,Potency,[9],inactive
CCn1nc(Cc2ccccc2)cc1C1CCN(C[C@H]2C[C@H](N(C)[C@@H](C(=O)O)C(C)C)C[C@@H]2c2cccc(F)c2)CC1,Potency,[1],"inconclusive: 54.5 µM [inhibitor, partial curve]"
same,"activity, negative = inhibition",[2],inconclusive: -31.1%
same,Potency,[4],"inconclusive: 77 µM [cytotoxic, single point]"
same,Potency,[8],"inconclusive: 48.6 µM [rising, partial curve]"
same,Potency,[5]; [16],"inconclusive: 30.6 µM [rising, partial curve]"
same,Potency,[11],"inconclusive: 9.77 µM [rising, partial curve, poor fit]"
same,Potency,[12],inactive
ON=C1CCCCC1,Potency,[1],inactive and active: 27.3 µM
same,Potency,[2],inactive
same,Potency,[13],inactive
same,"activity change, negative = inhibition",[5]; [16],inconclusive: -30.7%
same,"activity change, negative = inhibition",[5]; at 92.4 µM (top of the series),inactive: -0.335%
same,Potency,[9],"inconclusive: 68.6 µM [cytotoxic, single point]"
same,Potency,[6],"inconclusive: 30.6 µM [cytotoxic, single point]"
CC(=O)CC(=O)Nc1ccc(C)cc1C,Potency,[1],"inconclusive: 27.3 µM [inhibitor, single point]"
same,Potency,[2],inactive
same,Potency,[7],inactive
same,"activity change, negative = inhibition",[5]; [16],inconclusive: -8.91%
O=C(c1ccc(O)cc1)c1ccc(O)c(O)c1O,Potency,[1],"inconclusive: 17.3 µM [inhibitor, full curve]"
same,"activity, negative = inhibition",[2],inconclusive: 29.6%
same,Potency,[3],"inconclusive: 61.4 µM [cytotoxic, partial curve]"
same,cAMP activity change,[14],inconclusive: -5.19%
same,Potency,[7],inconclusive: 61.4 µM
same,Potency,[15],"inconclusive: 61.4 µM [cytotoxic, partial curve]"
same,"activity change, negative = inhibition",[5]; [16],inconclusive: -28.7%
CC(C)(C)C1=CC(=O)C(C(C)(C)C)=CC1=O,Potency,[1],"inconclusive: 10.6 µM [inhibitor, full curve]"
same,Potency,[2],"inconclusive: 26.6 µM [rising, partial curve, poor fit]"
same,Potency,[4],"inconclusive: 29.8 µM [cytotoxic, partial curve, poor fit]"
same,Potency,[15],inactive
same,Potency,[5]; [16],inactive

# — PubChem BioAssay (Tox21)
